The subject of one assay is HSkMC. As to the kind of experiment: cytotoxicity call (relative viability < 0.9). Conditions: 10 µM.
The test system of the next assay is HepG2. As to the kind of experiment: cytotoxicity call (relative viability < 0.9). The following applies: 10 µM.
In another assay the test system is S. aureus RN4220. As to the kind of experiment: growth inhibition call (relative growth <= 0.2). Conditions: 50 µM.

Drawing on the antibiotic and cytotoxicity screens of Wong et al. (2023), this text covers cytotoxicity call and growth inhibition call for 29 compounds.

This is one part of the list.

With `CC12CCC3c4ccc(O)cc4CCC3C1CCC2O` (configuration not stated), the cytotoxicity call in the assay with HSkMC and in the assay on HepG2 was “inactive” throughout. In the assay on S. aureus RN4220, the growth inhibition call was “inactive”.

With `C[C@@H]1CN([C@@H](C)CO)C(=O)Cc2cc(NC(=O)Cc3ccccc3)ccc2O[C@@H]1CN(C)C(=O)Nc1ccc(C(F)(F)F)cc1`, the cytotoxicity call in the assay on HSkMC and in the assay with HepG2 was “inactive” throughout. Further, the growth inhibition call in the assay on S. aureus RN4220 is “inactive”.

`N[C@@H](c1ccccc1)c1cc2ccccc2cn1`: the cytotoxicity call in the assay on HSkMC and in the assay on HepG2 was “inactive” in each case. Also, the growth inhibition call with S. aureus RN4220 was “inactive”.

On to `CC(C)NC(=O)N(C)C[C@H]1OCCCC[C@@H](C)Oc2ccc(NS(=O)(=O)c3cn(C)cn3)cc2C(=O)N([C@H](C)CO)C[C@@H]1C`, for which the cytotoxicity call with HSkMC and with HepG2 was “inactive” throughout. The growth inhibition call in the assay with S. aureus RN4220 is “inactive”.

Consider `COCCCCC(=NOCCN)c1ccc(C(F)(F)F)cc1.O=C(O)C=CC(=O)O`, for which the cytotoxicity call with HSkMC was “inactive”. In addition, in the assay on HepG2, the cytotoxicity call is “active”. Also, the growth inhibition call in the assay on S. aureus RN4220 was “inactive”.

For `O=S1(=O)C[C@@H]2NC(=S)N[C@@H]2C1`, the cytotoxicity call with HSkMC and in the assay on HepG2 was “inactive” in each case. Moreover, the growth inhibition call in the assay on S. aureus RN4220 was “inactive”.

Consider `O=C(C[C@H]1CC[C@@H]2[C@H](COC[C@@H](O)CN2S(=O)(=O)c2ccccc2F)O1)NCc1ccccc1Cl`, for which the cytotoxicity call with HSkMC and with HepG2 was “inactive” each time. The growth inhibition call in the assay on S. aureus RN4220 was “inactive”.

On to `Cc1ccc(S(=O)(=O)N(C)C[C@@H]2Oc3c(NC(=O)c4cc(C)nn4C)cccc3C(=O)N([C@@H](C)CO)C[C@H]2C)cc1`, for which the cytotoxicity call in the assay on HSkMC and in the assay on HepG2 was “inactive” in each case. In addition, the growth inhibition call with S. aureus RN4220 is “inactive”.

For `C[C@@H]1CCCCO[C@H](CN(C)Cc2ccc(Cl)c(Cl)c2)[C@@H](C)CN([C@H](C)CO)C(=O)c2cc(NC(=O)c3ccncc3)ccc2O1`, the cytotoxicity call in the assay with HSkMC and in the assay on HepG2 was “inactive” in each case. Also, in the assay on S. aureus RN4220, the growth inhibition call was “inactive”.

In the case of `COc1cccc(-c2cn(CC[C@@H]3CC[C@H](NC(=O)CN(C)C)[C@@H](CO)O3)nn2)c1`, the cytotoxicity call in the assay with HSkMC and in the assay with HepG2 was “inactive” each time. Moreover, in the assay with S. aureus RN4220, the growth inhibition call was “inactive”.

For `Cc1ccccc1NC(=O)C[C@H]1NCCNC1=O`, the cytotoxicity call in the assay with HSkMC and with HepG2 was “inactive” throughout. Moreover, the growth inhibition call in the assay on S. aureus RN4220 is “inactive”.

For the compound `C[C@@H]1CCCCO[C@@H](CN(C)C(=O)C2CCCCC2)[C@H](C)CN([C@@H](C)CO)C(=O)c2cc(NC(=O)Cc3ccccc3)ccc2O1`, the cytotoxicity call in the assay on HSkMC and in the assay with HepG2 was “inactive” throughout. Also, the growth inhibition call with S. aureus RN4220 was “inactive”.

Turning to `O=C(C[C@H]1CC[C@@H]2[C@H](COC[C@H](O)CN2C(=O)Nc2ccc(Cl)cc2)O1)NC1Cc2ccccc2C1`, the cytotoxicity call in the assay on HSkMC and with HepG2 was “inactive” throughout. In addition, the growth inhibition call with S. aureus RN4220 is “inactive”.

Regarding `Cc1noc(C)c1NC(=O)N[C@H]1C=C[C@@H](CC(=O)NCCCN(C)C)O[C@@H]1CO`, the cytotoxicity call in the assay with HSkMC and with HepG2 was “inactive” throughout. Besides, the growth inhibition call in the assay on S. aureus RN4220 was “inactive”.

`COc1ccc(S(=O)(=O)N(C)C[C@H]2OCCCC[C@H](C)Oc3ccc(NC(=O)NC4CCCCC4)cc3C(=O)N([C@@H](C)CO)C[C@H]2C)cc1`: the cytotoxicity call with HSkMC and with HepG2 was “inactive” throughout. Further, the growth inhibition call with S. aureus RN4220 was “inactive”.

As for `Cn1c(N)c(C(=O)c2ccco2)c(=O)n(C)c1=O`, the cytotoxicity call in the assay on HSkMC and in the assay with HepG2 was “inactive” each time. The growth inhibition call in the assay with S. aureus RN4220 is “inactive”.

With `C[C@@H]1CN([C@@H](C)CO)C(=O)c2cccc(NC(=O)Nc3cccc4ccccc34)c2O[C@H]1CN(C)C(=O)Nc1ccc2c(c1)OCO2`, the cytotoxicity call with HSkMC and in the assay with HepG2 was “inactive” each time. In addition, in the assay with S. aureus RN4220, the growth inhibition call is “inactive”.

Regarding `CCOC(=O)[C@@H]1CCCCN1C(=O)C(=O)OC`, the cytotoxicity call in the assay on HSkMC and in the assay with HepG2 was “inactive” in each case. Further, in the assay with S. aureus RN4220, the growth inhibition call was “inactive”.

`COc1cccc(NC(=O)N(C)C[C@@H]2Oc3cc(C#CC4(O)CCCC4)ccc3S(=O)(=O)N([C@H](C)CO)C[C@@H]2C)c1`: the cytotoxicity call in the assay on HSkMC and in the assay on HepG2 was “inactive” each time. In addition, in the assay on S. aureus RN4220, the growth inhibition call is “inactive”.

For the compound `COC1CNC1`, the cytotoxicity call in the assay on HSkMC and in the assay on HepG2 was “inactive” each time. Besides, the growth inhibition call with S. aureus RN4220 is “inactive”.

On to `Cc1ccc(S(=O)(=O)N[C@H]2CC[C@H](CC(=O)NCc3ccc(Cl)c(Cl)c3)O[C@@H]2CO)cc1`, for which the cytotoxicity call with HSkMC and in the assay on HepG2 was “inactive” throughout. The growth inhibition call in the assay with S. aureus RN4220 was “inactive”.

`Cn1c(=O)c2[nH]cnc2n(C)c1=O.NCCN`: the cytotoxicity call with HSkMC and in the assay on HepG2 was “inactive” throughout. Further, the growth inhibition call with S. aureus RN4220 is “inactive”.

With `O=C(O)c1ccccc1-c1c2cc(I)c(=O)c(I)c-2oc2c(I)c(O)c(I)cc12`, the cytotoxicity call with HSkMC is “active”. The cytotoxicity call in the assay on HepG2 is “inactive”. Moreover, the growth inhibition call in the assay on S. aureus RN4220 was “active”.

Take `Cn1c(=O)[nH]c(=O)c2c1nc(N1CCN(CCO)CC1)n2CC(=O)c1ccccc1`: the cytotoxicity call in the assay with HSkMC and in the assay on HepG2 was “inactive” each time. Further, the growth inhibition call with S. aureus RN4220 was “inactive”.

Regarding `C[C@H]1CN([C@@H](C)CO)C(=O)c2cc(NC(=O)Nc3ccccc3)ccc2O[C@H]1CN(C)S(=O)(=O)c1cn(C)cn1`, the cytotoxicity call with HSkMC and in the assay on HepG2 was “inactive” in each case. In the assay on S. aureus RN4220, the growth inhibition call is “inactive”.

As for `CC(C)NC(=O)N(C)C[C@H]1Oc2ccc(NC(=O)NC3CCCCC3)cc2CC(=O)N([C@H](C)CO)C[C@H]1C`, the cytotoxicity call with HSkMC and in the assay with HepG2 was “inactive” each time. In addition, in the assay on S. aureus RN4220, the growth inhibition call was “inactive”.

Consider `Cc1cc(=O)oc2cc(O)c(O)cc12`, for which the cytotoxicity call in the assay on HSkMC and in the assay on HepG2 was “inactive” throughout. In addition, the growth inhibition call in the assay on S. aureus RN4220 was “inactive”.

With `COc1ccc(C(=O)Nc2ccc(CN3C(=O)[C@]4(O[C@H](CC(=O)N5Cc6ccccc6C[C@H]5CO)[C@@H]([Si](C)(C)c5ccc(OC)cc5)[C@@H]4C)c4ccccc43)cc2)cc1`, the cytotoxicity call in the assay on HSkMC (human skeletal muscle cells) is “inactive”. Also, in the assay with HepG2, the cytotoxicity call is “active”. The growth inhibition call with S. aureus RN4220 was “inactive”.

Regarding `CN(C)CC#Cc1ccc([C@@H]2[C@H](CO)N3C(=O)CN(C(=O)c4cccnc4)C[C@@H]23)cc1`, the cytotoxicity call with HSkMC and with HepG2 was “inactive” throughout. Further, the growth inhibition call with S. aureus RN4220 is “inactive”.
